Values joined by “and” are separate entries in the source; they are usually repeats but may differ in a detail not shown here. Identical values can stand only once. The list shows a part of the results. The main result of the screen is listed elsewhere. These columns were measured beside it and carry no call. Most of these compounds were active or inconclusive in the main read-out, so they are no random draw.

The nature of this assay: inhibitors of triacylglycerol accumulation, primary screen, cell-based, uHTS, fluorescence, H9c2 (AID 651582). As to conditions: H9c2 cells, Nile Red lipid (TAG) fluorescence; measured here:; at 12.5 µM; cells loaded with 200 µM oleic acid.
As to `Cc1nn(-c2ccc([N+](=O)[O-])cc2)c2c1C(c1ccc(OC(F)F)cc1)N1C(=N2)C(=O)Nc2ccccc21` (stereo unspecified), the DAPI nuclei signal change (viability), lower = more cytotoxic was -0.725%. For the compound `Cc1ccc(-c2cc(C(=O)N/N=C/c3c(C)nn(-c4ccccc4)c3C)[nH]n2)cc1`, the DAPI nuclei signal change (viability), lower = more cytotoxic is -35%. `CC1CCN(c2cc(N3CCC(C)CC3)c([N+](=O)[O-])cc2/C=C(\C#N)c2nn(-c3ccccc3)c(N)c2C#N)CC1`: the DAPI nuclei signal change (viability), lower = more cytotoxic is -13.4%. Then `CCC[C@@H](CNC)NC[C@H](Cc1ccccc1)NCCCCc1ccccc1`, with -39.9%; and `COCCCn1c(SCC(=O)Nc2nc3ccccc3s2)nnc1-c1ccoc1C`, with -11.6%; and `O=C(Cc1ccccc1)NC(Nc1cccc2ccccc12)C(Cl)(Cl)Cl` (stereo unspecified), with 6.86%.

In the case of `O=[N+]([O-])c1ccc(Nc2nc(N/N=C\c3ccc4c(c3)OCO4)nc(N3CCCCC3)n2)cc1`, the DAPI nuclei signal change (viability), lower = more cytotoxic was -9.17%. With `CC1CC(C)CN(CC(=O)c2cccs2)C1` (stereo unspecified), the DAPI nuclei signal change (viability), lower = more cytotoxic was -19.2%. With `CCCc1cc(C(=O)N/N=C/c2ccc(CC)s2)c2ccccc2n1` the figure was -25.4%; with `CC(=O)Nc1ccc(Oc2nc(-c3ccccn3)nc3ccccc23)cc1`, -20.2%. With `COC(=O)[C@]1(CC(C)C)N[C@H](c2ccc(-c3cccc(Cl)c3)cc2)[C@@H]2C(=O)N(C)C(=O)[C@@H]21` the figure was -2.71%. For the compound `Fc1ccc([C@@H]2CCNC[C@H]2COc2ccc3c(c2)OCO3)cc1`, the DAPI nuclei signal change (viability), lower = more cytotoxic was -12.9%. Then `CN(C)CCCNC(=O)CC1C[C@H](C(=O)N2CCCCC2)[C@@]2(CCc3ccccc3)c3[nH]c4ccccc4c3CCN2C1=O` (stereo partly specified), with -30.2%; and `NC1=NC[C@H](Cc2ccccc2)N1CCc1cc(C(F)(F)F)cc(C(F)(F)F)c1`, with -11.2%; and `C=CCN1C(=O)/C(=C2/Sc3ccccc3N2C)SC1=Nc1ccccc1C`, with -9.6%. With `O=C(Nc1ccc2oc(-c3cccnc3)nc2c1)c1ccc([N+](=O)[O-])o1` the figure was -37.9%; with `Cc1ccc(/C=N/NC(=O)c2cc(-c3cccnc3)nc3ccccc23)cc1`, -27.4%; with `O=C(CSc1nc2ccc(Nc3nc(N4CCOCC4)nc(N4CCOCC4)n3)cc2s1)Nc1ccccc1F`, -4.87%. With `O=C1C=CC(=O)c2c(O)c(N3CCN(CCOCCO)CC3)c(Br)c(O)c21`, the DAPI nuclei signal change (viability), lower = more cytotoxic is -46.1%.

On to `C=CC(=O)N1C/C(=C/c2ccc(F)cc2)C(=O)/C(=C\c2ccc(F)cc2)C1`, for which the DAPI nuclei signal change (viability), lower = more cytotoxic is -47.7%. Consider `COc1ccc(CN(C)C[C@@H]2OCCCC[C@H](C)Oc3ccc(NC(=O)Nc4ccc(F)cc4)cc3C(=O)N([C@H](C)CO)C[C@H]2C)cc1`, for which the DAPI nuclei signal change (viability), lower = more cytotoxic is -26.8%. Then `CNCCCN1c2ccccc2CCc2ccccc21`, with -29.8%; and `Cc1ccc(C(=O)Nc2cc(C)c(OCC(=O)N3CCOCC3)c(C)c2)cc1`, with -5.97%. With `Cc1cccc(N(Cc2ccccc2)C(=O)CCl)c1`, the DAPI nuclei signal change (viability), lower = more cytotoxic is -31.7%. Then `CCOC(=O)c1[nH]c(C)c(C(=O)OC(C)C(=O)Nc2ncc(Cl)cc2Cl)c1C` (stereo unspecified), with -10.1%; and `CC(=O)Nc1ccc(SC[C@H](CC(C)C)N2CCN(CC(C)C)CCC2=O)cc1`, with -26.5%. With `Cc1ccc(C)c(N=Nc2ccc(O)c3ncccc23)c1`, the DAPI nuclei signal change (viability), lower = more cytotoxic is -32.1%.

Regarding `CN(C)CCNC(=O)c1cccc2ccc(-c3ccc(-c4ccccc4)cc3)nc12`, the DAPI nuclei signal change (viability), lower = more cytotoxic is 173%. Then `CCN1CCCC1CNC(=O)c1cc2c(-c3ccc(Cl)cc3)nn(C)c2s1` (stereo unspecified), with 55.6%.

Take `CCCCN1C2=C(C(=O)CCC2)C(c2ccc(Cl)c(Cl)c2)C2=C1c1ccccc1C2=O` (stereo unspecified): the DAPI nuclei signal change (viability), lower = more cytotoxic was -3.49%. With `CCN(CCCNC(=O)c1cn(CC)c2ccc(S(=O)(=O)N(C)C)cc2c1=O)c1cccc(C)c1` the figure was 22.6%. Take `Cc1ccc(-c2cc(C(F)F)n3ncc(C(=O)Nc4c(C)nn(Cc5c(Cl)cccc5Cl)c4C)c3n2)cc1`: the DAPI nuclei signal change (viability), lower = more cytotoxic was -45.7%.

As to `CC(C)(C)N1C(=O)[C@H]2[C@@H](c3ccc(Br)cc3)N3C(=O)N(c4ccc(Br)cc4)C(=O)[C@@]3(Cc3ccccc3)[C@H]2C1=O`, the DAPI nuclei signal change (viability), lower = more cytotoxic was determined as 0.139%. Then `COc1ccccc1CNC(=O)/C=C/c1ccc(Br)o1`, with -39.1%. Then `CN1C(=O)C(O)(CC(=O)c2ccccn2)c2cc(Br)ccc21` (stereo unspecified), with -18.9%. Turning to `S=C(NN=C(c1ccccc1)c1ccccn1)N(Cc1ccccn1)Cc1ccccn1`, the DAPI nuclei signal change (viability), lower = more cytotoxic was -41%.

`O=C(NC1CCCCC1)C(c1ccccc1)N(Cc1ccc2c(c1)OCO2)C(=O)c1cnsn1` (stereo unspecified): the DAPI nuclei signal change (viability), lower = more cytotoxic was -10.6%.

As to `O=c1c(Br)c(Br)cnn1-c1ccccc1`, the DAPI nuclei signal change (viability), lower = more cytotoxic was -46%. With `Cc1[nH]c2c(C)cccc2c1CCNC(=O)c1ccc2c(c1[N+](=O)[O-])C(=O)c1ccccc1C2=O` the figure was -12.6%. Consider `CN(C)CCCNC(=O)C[C@H]1C[C@H](C(=O)N2CCCCC2)[C@@]2(C)c3[nH]c4cc(-c5ccco5)ccc4c3CCN2C1=O`, for which the DAPI nuclei signal change (viability), lower = more cytotoxic was -38.8%. For `COC(=O)Nc1nc(-c2ccccc2)c(C(=O)c2ccccc2)s1`, the DAPI nuclei signal change (viability), lower = more cytotoxic is -28.8%. On to `COc1cc(C(=O)Nc2nc3ccc(C)cc3s2)ccc1OCc1c(C)noc1C`, for which the DAPI nuclei signal change (viability), lower = more cytotoxic is 11.6%. In the case of `O=C1C(NS(=O)(=O)c2cccs2)=C(N2CCN(c3cccc(Cl)c3)CC2)C(=O)c2ccccc21`, the DAPI nuclei signal change (viability), lower = more cytotoxic was -4.52%.

In the case of `CCOc1cc2[nH]c(=O)n(CCc3ccc(OC)c(OC)c3)c(=O)c2cc1OCC`, the DAPI nuclei signal change (viability), lower = more cytotoxic amounted to 2.85%. Then `COc1ccc(Cn2c(SCc3ccccc3C)nc3cc(OC)c(OC)cc3c2=N)cc1`, with -23.1%; and `COC(=O)c1cc(C(=O)N2CCN(c3ccccc3OC)CC2)cc([N+](=O)[O-])c1`, with -40.6%. With `CCN(CC)c1ccc(/C=C2\CCC(/C=C(/C#N)C(=O)Nc3ccccc3F)=C2N2CCOCC2)cc1` the figure was -4.51%; with `CSc1cc(-c2ccccc2)n(Cc2c(Cl)cccc2Cl)c(=O)c1C#N`, -28.5%. Then `Fc1ccc(Oc2nc(-c3ccccn3)nc3ccccc23)cc1`, with -11.9%; and `COc1cccc(Nc2nc(C(N)Cc3ccc(C(F)(F)F)cc3)cs2)n1` (stereo unspecified), with -42.5%. For the compound `COc1ccc2nc(C)cc(N/N=C/c3ccccc3)c2c1`, the DAPI nuclei signal change (viability), lower = more cytotoxic was -0.472%. As to `COc1ccc(NC(=O)C2(C)Cc3c(-c4cccc(C(N)=O)c4)ccnc3O2)cn1` (stereo unspecified), the DAPI nuclei signal change (viability), lower = more cytotoxic is -34.5%. Regarding `COc1ccc(OC)c(Nc2nc(-c3sc(NC(=O)CC(C)C)nc3C)cs2)c1`, the DAPI nuclei signal change (viability), lower = more cytotoxic was -1.28%. In the case of `CCCC[C@H](CN[C@@H](CNC)[C@H](C)CC)NCCC12CCC(CC1)C2`, the DAPI nuclei signal change (viability), lower = more cytotoxic was -20.4%. With `CCOC(=O)C1CCCCN1C(=O)c1cc2ccc(OC)cc2c2cc(OC)c(OC)cc12` (stereo unspecified) the figure was 7.05%; with `O=C(CSc1cccc2cccnc12)Nc1ccccc1F`, -33.8%.

`COc1cc(OC)c2c(-c3ccccc3)cc(=O)oc2c1C(CCN1CCN(c2ccccc2)CC1)c1ccc(N(C)C)cc1` (stereo unspecified): the DAPI nuclei signal change (viability), lower = more cytotoxic is 6.31%. With `CCOC(=O)CN(C(=O)CSc1nnc2c(n1)[nH]c1ccccc12)c1ccccc1` the figure was -9.24%; with `CNC(=O)c1ccc(-c2sc3nc(N4CCOCC4)c4c(c3c2N)CCCC4)o1`, 45.9%; with `Cc1cc(N(CCO)CCO)ccc1N=Nc1cc(F)ccc1F`, -5.39%. With `O=[N+]([O-])c1cccc(S(=O)(=O)N2CN(c3ccc(Br)cc3)c3nc4ccccc4nc32)c1` the figure was 8.55%; with `c1ccc(CSC2=NNC(c3ccccn3)S2)cc1` (stereo unspecified), -18.2%; with `CCN1CCN(Cc2ccc(NC(=O)c3ccc(C)c(NC(=O)c4c[nH]c5cc(C(F)(F)F)ccc5c4=O)c3)cc2C(F)(F)F)CC1`, -1.58% and -28.9%. On to `Nc1ccc(C(=O)N/N=C\c2cc(N=Nc3cccc4ccccc34)ccc2O)cc1`, for which the DAPI nuclei signal change (viability), lower = more cytotoxic was -28%. With `O=C1/C(=C\c2ccc(Cl)c(Cl)c2)CN(C(=O)CCN2CCOCC2)C/C1=C/c1ccc(Cl)c(Cl)c1`, the DAPI nuclei signal change (viability), lower = more cytotoxic is -48.8%. With `Cc1nn2c(N3CCN(C)CC3)c3c(nc2c1-c1ccccc1)CCCC3` the figure was -32.7%.

For `COCCN(Cc1ccccc1)C(=O)C1CCN(C(=O)Nc2ccccc2)CC1`, the DAPI nuclei signal change (viability), lower = more cytotoxic is -2.05%. As for `O=C1c2ccc3c4c(ccc(c24)C(=O)N1c1cccc(O)c1)C(=O)N(c1cccc(O)c1)C3=O`, the DAPI nuclei signal change (viability), lower = more cytotoxic is -19.7%. For the compound `CCOC(=O)c1sc2nc(CSc3ccccc3)nc(NCCN(C)C)c2c1C`, the DAPI nuclei signal change (viability), lower = more cytotoxic is -21.2%.

As for `COc1ccc2cc(Br)ccc2c1CC(=O)NC1CC(C)(C)NC(C)(C)C1`, the DAPI nuclei signal change (viability), lower = more cytotoxic was -15.3%. With `CC(=NNC(=S)N1CC2CCC(CC2)C1)c1cccc(C)n1` the figure was -35.6%.

Values taken from PubChem BioAssay AID651582 (Sanford-Burnham Center for Chemical Genomics, 2012).
